# The list shows a part of the results.
# Test system: PfSIP2 AP2 domain 1 (GST-tagged)
# Experiment: gcPBM binding intensity (ln(normalized median fluorescence intensity)); higher = stronger DNA binding
# Summary of the method: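 GST-tagged P. falciparum DNA-binding domains, expressed in E. coli (about 25 μg on average), were applied for 1 h to an Agilent 4 × 180k array of primer-extended double-stranded 36-bp intergenic genomic probes plus negative controls. The binding buffer was 1× PBS with 1% milk, 0.2 mg/ml BSA, 0.5% salmon testes DNA and 0.03% Triton X-100. Bound protein was detected with Alexa488 anti-GST antibody and scanned at 488 nm. Binding intensity is the highest Masliner-normalised natural-log median intensity across replicate spots of either probe orientation.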
row,Sequence,gcPBM binding intensity (ln)
1,AAAATTGTTATTTTATGTACTTATATTTATTTATTT [XGTACX_site3478],7.03
2,ATATATATAATATAATGTACATATATTTTATTTTTA [XGTACX_site3819],7.71
3,TATATACATTTATGTACACACACATATATGTATATT [CACACA_site8971],7.29
4,ATATATTAATTTAATTGTACGAATAAAAAAAAAAAA [XGTACX_site223],7.01
5,AAAGCACCCAAGAATACACACAAATATTATAAAAAA [CACACA_site111],8.37
6,TAATGTATTATATTTAGTACATATAAAAATAATTTT [XGTACX_site6886],7.02
7,ACGTATTAGATAAATACACACACAAGCATATATTTT [CACACA_site9135],7.03
8,ATATATATTGTACTAGTGCATATATATACATATATT,8.43
9,ATAAATAAAAACACAAAACAAAACAAAACAAAACAA [CACACA_negctrl_site1257],6.9
10,TTTCATCTATATGAAACACACAAAGGAAAAAAAATT [CACACA_site7869],7.01
11,TAATAAATGGCTAGTTGTACAGAAATATAAATATTA [XGTACX_site4579],6.79
12,AGATTCAAAAATAAAACATGCAAAAATAAAACGTGC [TGCATGCA_site501],7.31
13,CATTTTATCAAAAGTGGTACAACCCTTTCAAAAAAT [XGTACX_site341],6.93
14,TTTTTTTTTTTTTTTTGTACGTAATATATGATTAAT [XGTACX_site6876],6.98
15,AAATTACTTTCACAGTGTACTTGGAAAAAAAAAAGA [XGTACX_site1046],7.05
16,AGATATAATAAATATACACACATATATATATATATA [CACACA_site962],9.74
17,TAATTTTATATATGCACACAAAATATGTTCATATAA [CACACA_site4076],7.15
18,TGAAAAATGTTGATGTGTACTTATATAGTGTGTTAA [XGTACX_site2100],7.24
19,TTTAACATAAATTAAACACACAATATAATACATTAA [CACACA_site1237],6.72
20,ATATATATTTAAATGTGTACTCATTTATTTTATGTC [XGTACX_site4984],7.13
21,ATAGTATAACAGCAATGTACACATATTTGTGTATAT [XGTACX_site7899],6.99
22,TATATATATAAACACACACACACATATATATATATT [CACACA_site8814],7.96
23,TTTTTTTTTTTTGTCACACATATATTTGTATTTATA [CACACA_site5234],6.89

row,Sequence,gcPBM binding intensity (ln)
1,TGATATTTATAATAAATATTATAATAAAATCAAACA [XGTACX_negctrl_site219],6.86
2,ATATATATTTTTATTTGTACATAATTTTTTTTGTGA [XGTACX_site6378],7.3
3,TTTTTTTTTTTTTGCACACACATATATAGATATATA [CACACA_site7784],7.24
4,ATAAAATTGTTTAAATGTACATATGAACAGTCAGTA [XGTACX_site5140],7.53
5,ATATATGTAATAAATAGTACACACACACATATATAT [XGTACX_site2817],7.33
6,CACATACACATACAAACACACATTAGATATAAATAT [CACACA_site6854],7.24
7,AAAAAAAATTAATAGGGTACATGAAAAGTGGAATAT [XGTACX_site618],7.43
8,ATAGAAGAAATATGCACACATACATTGAAATGTTTT [CACACA_site321],7.43
9,CCATTAAGACACATTGCACACGTGCACCCATAGAAA [CACACA_site4388],12.4
10,TGAACACGCACAAATACACACAAAAAAAATAAATAA [CACACA_site6257],7.28
11,AACAAAATAGGGAACACACACATGTCAATATATAAA [CACACA_site2596],7.06
12,AAAAAAAAATTAAAAACACACATATAAATAAATATA [CACACA_site6845],6.9
13,TTTTTTTTTAAATAATGTACTTTTCATTATTTAGAT [XGTACX_site1706],6.95
14,TTTTTATTTATTAATACACACACACCCACCCACAAA [CACACA_site7965],8.02
15,AAAGAAAAAAATAATTGTACATTTATATTTAATTTA [XGTACX_site8003],6.64
16,TACTTTTTTTTTTTTTTTTTTTTTTTTTCCCTTTTT [CACACA_negctrl_site761],6.84
17,GTTTATTTATTATAATGTACATTAGTCTGAGGAGTT [XGTACX_site4035],7.42
18,TTTTATTTATATATAGTGCATATTATTATAAAACAA,9.36
19,ATATATATATATATATGTACATATGTTAATCTGCAT [XGTACX_site1068],9.63
20,CTTTTTTTCCATTAAGCATGCACATTCATATTTACT [TGCATGCA_site170],7.24
21,TATATATATATAGGTTGTACATTTTGATGTTTACGT [XGTACX_site5503],9.18
22,CACACCCACAAAAACACACACAAAGGTGTTCTTATA [CACACA_site1293],7.04
23,TGTAGTCTGGAGAAACGTACATAGTATCTGGTAACC [XGTACX_site4939],7.09

row,Sequence,gcPBM binding intensity (ln)
1,TATTTATTTTTTTGCACACATATTTTACATTTTAAT [CACACA_site3181],7.65
2,ATAACATTCATATTCACACAAAAATATACTACATAG [CACACA_site4529],7.09
3,TATATATATATATATACACACATATATATATTTATA [CACACA_site627],9.69
4,ATATAAAAAGTGTATCGTACATTTACTTATTTTATA [XGTACX_site6249],6.99
5,ATAAAAAAAGGACACACACACATATATATATATATA [CACACA_site5662],9.46
6,ATTGAAAATTGTTGCACACATAATAATTAAATATAT [CACACA_site1857],7.25
7,TATATTTCTTATTTCTTATTTTGTCATCACCTTTTT [CACACA_negctrl_site1115],6.86
8,TTACATAATATATGTACACACGCAAATACTTATAAT [CACACA_site7995],7.01
9,TATAAATATGTTCTTACACACACGAATATAAATATG [CACACA_site7537],6.99
10,AAAAAAATCACATAAAATACTTTATTTTATATTATA [GTGCAC_negctrl_site372],6.81
11,GCTTATGCTCAATATTGTACTTTTTTTATTTATTCA [XGTACX_site8863],7.21
12,TACTTCTTTTTTATTTATTTTACTTTTTATTCTGTA [CACACA_negctrl_site772],7.18
13,ATTTAATTTTTTTTTAAACACACATTTTTTTATTTA [CACACA_site8880],6.91
14,TTCAATTATATTCTTTGTACGAATCTTCTATAAATT [XGTACX_site4346],6.99
15,AAAATTATTAAATATGTACACACGTACATTTTATAA [CACACA_site8750],7.01
16,ATATATATATATATATGTACATATACACATGTGTGC [XGTACX_site168],9.46
17,AAATAAATAATAAATAAATAAATAAAATACCAAATA [GTGCAC_negctrl_site620],7.02
18,TATAAATATGTGTATACACACCTGATAAAGGTATAT [CACACA_site7283],6.97
19,TTATGTAGTATAATGAGTACTAAATATAGATATGTT [XGTACX_site6335],7.19
20,AATATTATAAATGATACACACTTAAAATACAGACAC [CACACA_site8868],7.5
21,AATTACTTAAATTATTGTACCCTAATGTTAATTTCA [XGTACX_site825],7.01
22,TTTTATATCTACCTTTGTACATATTTATTTTTTTTA [XGTACX_site7872],7.17
23,TTCATAAAAAATGTAGTGCATTGAATAAAATTACAT [GTGCAC_site9393],8.06

row,Sequence,gcPBM binding intensity (ln)
1,TTAATTTTGGTAAATGCATGTAATTAAAAATAAAAA [TGCATGCA_site234],7.12
2,ATATTGAAATTAAAAAAATATATGAACAAATGATGA [CACACA_negctrl_site602],7.07
3,TAAATTTTTTTTTTTTGTACACAAAAATATAATATT [XGTACX_site8151],6.74
4,TATTTTGAAATGGAAAGGATATAGAACTTAAACAAA [CACACA_negctrl_site1530],7.07
5,TTTATAAAAAGCATAACACACACATGTCAATATATA [CACACA_site8286],6.96
6,AACATACGACAATACGCACACATATAAGTACATATT [CACACA_site8584],7.13
7,ATACATTCAAAATATACACACATATATCTATAATAT [CACACA_site6576],7.1
8,TTTCTTTAGTAGAATGTAAAAAATATAATCTTCTTA [TGCATGCA_negctrl_site298],6.47
9,TTACAAAACCGATGTTGTACATTCAATAGATAATGT [XGTACX_site3806],7.08
10,AATGTATAAAAGTTTTGTACATATTCTCACACATAT [XGTACX_site965],6.97
11,ATATACCATATGCATGGTACACATTTACAACAAAAA [XGTACX_site3142],6.97
12,TAGTTGTGAGTTACATGTACATGTATTTATTTTTTA [XGTACX_site7088],6.91
13,TTTATTAAATAAAGCACACACAACAACTTTTCACAA [CACACA_site4132],7.05
14,GATAACAATATGTGTACACATTTATATCTCCACATA [CACACA_site5442],7.29
15,ATAACGTAAACAATGTGGACACATACATAAATATAT [XGTACX_site707],7.43
16,TATAACAAGTAATGGTGTACATTATATTATGTAATA [XGTACX_site2761],6.95
17,CATATGCGTCTTGCCTTGCACACTTTTATGAAAAAA [CACACA_site2055],7.29
18,TAATACTTAAAATGTTGTACATAATAATTTTATATT [XGTACX_site5403],7
19,TATATATATATATATACATGCATTTCTCATGTACAT [TGCATGCA_site621],9.73
20,GTCATCATAATCTATTGTACAAAAATTTATACAGAT [XGTACX_site1059],7.26

# Source: the supplement of paper PMC11417369
